Reference: PMC4336329 (PLoS ONE, 2015)
The campaign covered roughly 310,000 compounds. About 2,200 (0.71%) showed an effect of 50% or more. The effect is printed as a negative number. The list shows a part of the results.

Target: human ether-à-go-go-related gene (hERG) potassium channel (human, UniProt Q12809)
Test: primary screen, population patch clamp on CHO cells stably expressing hERG

human ether-à-go-go-related gene (hERG) potassium channel, sequence (Q12809 whole entry, looked up): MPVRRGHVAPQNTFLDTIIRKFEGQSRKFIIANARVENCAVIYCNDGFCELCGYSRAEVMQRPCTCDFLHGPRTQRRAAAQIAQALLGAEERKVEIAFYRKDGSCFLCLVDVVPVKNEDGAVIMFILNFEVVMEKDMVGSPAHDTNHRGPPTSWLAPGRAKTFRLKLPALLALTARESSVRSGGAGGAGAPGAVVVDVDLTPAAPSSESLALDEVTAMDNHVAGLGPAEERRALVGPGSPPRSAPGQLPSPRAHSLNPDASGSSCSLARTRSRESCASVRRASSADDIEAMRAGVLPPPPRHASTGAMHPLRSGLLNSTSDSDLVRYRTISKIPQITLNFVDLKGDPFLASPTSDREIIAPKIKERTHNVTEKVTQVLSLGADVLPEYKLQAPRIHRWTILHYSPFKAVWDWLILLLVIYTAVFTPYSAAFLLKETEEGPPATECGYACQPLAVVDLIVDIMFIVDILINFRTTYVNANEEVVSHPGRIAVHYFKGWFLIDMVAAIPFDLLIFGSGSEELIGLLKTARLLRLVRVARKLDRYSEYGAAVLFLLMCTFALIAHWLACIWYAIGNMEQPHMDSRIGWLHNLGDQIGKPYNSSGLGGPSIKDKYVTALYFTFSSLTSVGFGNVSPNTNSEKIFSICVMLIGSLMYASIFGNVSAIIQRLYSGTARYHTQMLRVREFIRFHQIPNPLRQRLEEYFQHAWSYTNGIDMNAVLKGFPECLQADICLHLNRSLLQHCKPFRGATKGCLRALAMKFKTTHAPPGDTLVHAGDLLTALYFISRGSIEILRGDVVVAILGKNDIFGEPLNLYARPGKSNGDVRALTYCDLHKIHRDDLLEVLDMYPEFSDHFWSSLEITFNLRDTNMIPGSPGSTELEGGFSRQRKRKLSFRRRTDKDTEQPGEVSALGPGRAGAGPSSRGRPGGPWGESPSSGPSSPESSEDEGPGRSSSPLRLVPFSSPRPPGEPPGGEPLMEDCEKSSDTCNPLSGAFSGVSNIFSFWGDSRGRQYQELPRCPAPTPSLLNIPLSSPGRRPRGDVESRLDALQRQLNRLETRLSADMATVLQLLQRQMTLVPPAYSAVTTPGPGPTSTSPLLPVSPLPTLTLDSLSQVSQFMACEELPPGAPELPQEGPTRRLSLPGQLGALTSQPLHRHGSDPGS

SMILES	hERG current change (%, negative = inhibition) at 1uM
CN(C)C(=O)Nc1ccc(F)cc1F	8.44%
O=C(NCCc1ccc(Cl)cc1)C1CCC(=O)N(C2CCCCCC2)C1 (stereo not drawn)	9.01%
O=C(Cn1ncc2c1-c1ccccc1OC2)Nc1nc2ccccc2s1	9.68%
CCC1(c2ccccc2)NC(=S)N(c2ccc(C)cc2)N1 (stereo not drawn)	11.1%
O=C(NCc1cccs1)c1cccnc1C(=O)O	9.5%
Cc1ccc(NS(=O)(=O)c2ccc(C3CCCCC3)cc2)cc1	1.23%
COc1ccc2c(-c3ccccc3)cc(SC(C)C(N)=O)nc2c1 (stereo not drawn)	12%
CC1CC(C)CN(C(=O)c2ccc(C#N)cc2)C1 (stereo not drawn)	6.76%
CCN(CC)CCn1c2c(c(SCC(=O)Nc3cc(C)cc(C)c3)nc1=O)CCC2	-15.7%
Cn1c(SCc2ccccc2)nnc1-c1ccc(O)cc1	13.2%
COc1ccc(CCNC(=O)c2coc3ccccc3c2=O)cc1	19.4%
CCOC(=O)CC1COCCN1Cc1cn[nH]c1-c1ccc2c(c1)OCO2 (stereo not drawn)	17.3%
Cc1cccc(C2c3[nH]c4ccccc4c3CCN2C(=O)c2cn(C)c3ccccc3c2=O)n1 (stereo not drawn)	7.02%
Cc1nc2ccc(NC(=O)Cc3ccsc3)cc2s1	9.65%
COc1ccc2c(C)nc(Nc3nc(C)c(C)c(=O)[nH]3)nc2c1	8.91%
CC(OC(=O)CN1C(=O)C2C3C=CC(C4CC34)C2C1=O)C(=O)c1ccccc1 (stereo not drawn)	-0.865%
Cc1noc(C)c1C(=O)NCCc1c(C)[nH]c2ccccc12	17%
COn1c(SCc2cccc(Cl)c2)nc2ccccc2c1=O	3.64%
CCOC(=O)N1CCN(CC(O)COC(CC)c2ccccc2)CC1.Cl (stereo not drawn)	5.71%
O=C(COc1ccccc1[N+](=O)[O-])Nc1ccc(NC(=O)c2cc3ccccc3o2)cc1	5.41%
COc1ccc2nc(C)cc(N/N=C/c3cccc(OC)c3O)c2c1	7.59%
Cc1csc(=O)n1CCC(=O)OCc1nnc(-c2ccc([N+](=O)[O-])cc2)o1	-23.6%

SMILES	hERG current change (%, negative = inhibition) at 1uM
CCN(CC)C(=O)c1nn(-c2ccccc2)c2c1C1CCC2(C)C1(C)C (stereo not drawn)	12.2%
COc1nc2ccccc2c(=O)n1-c1ccc(Cl)cc1	13.3%
COCCCN1C(=O)C(=O)/C(=C(/O)c2ccc(S(=O)(=O)N3CCOCC3)cc2)C1c1ccc(OC)cc1 (stereo not drawn)	14.1%
COc1ccc(/C=N/NC(=O)c2nc(Cl)c(Cl)c(N)c2Cl)cc1COc1ccc(F)cc1F	9.06%
Cc1cc(O)c(-c2cc(O)c(C)cc2O)cc1O	5.42%
FC(F)(F)c1cc(-c2cccs2)nc2nc(N3CCOCC3)sc12	12.2%
COc1ccc(CN2C(=O)CSC2c2ccccn2)cc1 (stereo not drawn)	7.6%
O=C1c2ccccc2C(=O)N1Cc1nc(-c2ccncc2)no1	2.26%
COC(=O)C1=C(C(=O)c2ccccc2)C(c2ccccc2)n2nnnc2N1 (stereo not drawn)	14.3%
CCC1CCc2sc(C(=O)N(C)CC(=O)Nc3ccc(OC)cc3)cc2C1 (stereo not drawn)	5.22%
CC(C)(C)NC(=O)CN(C(=O)CN1C(=O)C(=O)c2ccccc21)C(C)(C)C	3.04%
COc1cc(S(=O)(=O)N(Cc2cccnc2)Cc2cccc(OC)c2OC)ccc1-n1cnnn1	2.4%
COC(=O)c1ccc(CSc2nnc(-c3ccccc3)n2C)o1	6.44%
CCCCc1nc2ccccc2n1CC(=O)NN	15.8%
COC(=O)C1(O)CC(CC(C)C)=NN1C(=O)c1ccccc1 (stereo not drawn)	1.04%
CCN(CC)S(=O)(=O)c1ccc2c(c1)nc(SCC(=O)NCC1CCCO1)n2CC (stereo not drawn)	18.2%
CCN1CCC(NC(=O)Nc2ccc(F)cc2F)CC1	-1.88%
COc1ccc(CC(=O)N2CCN(C)CC2)cc1	-2.13%
CN(CC(=O)O)S(=O)(=O)c1ccc2c(c1)NC(=O)CC(=O)N2	13.9%
CC(C)C(NS(=O)(=O)c1ccc2c(c1)oc(=O)n2C)C(=O)N1CCN(Cc2ccccc2)CC1 (stereo not drawn)	4.37%
C/C=C\C(=O)Nc1cccc(C2=NOC3(C2)C[C@@H](C(N)=O)N(C(=O)COc2ccc(Cl)cc2)C3)c1 (stereo partly drawn)	11%
COc1cc(C(F)(F)F)c(C(=O)N(C)Cc2cccc(Cl)c2)cn1	10%

SMILES	hERG current change (%, negative = inhibition) at 1uM
O=C(O)c1ccc2ccccc2c1O.OCc1cc(C(O)CNCCCCCCOCCCCc2ccccc2)ccc1O (stereo not drawn)	-8.45%
COC(=O)Nc1ccccc1C(=O)N1CCC(O)(c2ccc(Cl)cc2)CC1	1.26%
Cc1nn(Cc2ccccc2)c(C)c1/C=N/NC(=O)CNc1cccc(C(F)(F)F)c1	9.48%
COc1ccccc1C(=O)NCC(=O)N1CCN(S(=O)(=O)c2ccccc2C(F)(F)F)CC1	0.728%
CCOc1ccc(-n2cc(C(=O)NCc3ccco3)c3cc(OC)c(OC)cc3c2=O)cc1	14.8%
Cc1cccc(C(=O)NNC(=O)c2csc(N3CCOCC3)n2)c1C	3.4%
COc1cc(/C=N/NC(=O)COc2ccc(C)cc2)ccc1OC(=O)c1cccs1	18.7%
N#Cc1c(-c2ccccc2Cl)cc(-c2ccccc2)[nH]c1=S	1.86%
CN(Cc1c(F)cccc1Cl)C(=O)CNC(=O)c1ccc2c(c1)OCO2	13.8%
CCOC(=O)C1SC2(C(F)(F)C(F)F)CC1(O)c1c(c(OC)c3occc3c1OC)O2 (stereo not drawn)	-3.17%
O=C(c1ccc(S(=O)(=O)N2CCCCCC2)cc1)N(c1ccccn1)C1CCCCC1	0.0925%
CC(Oc1ccccc1Cl)C(=O)N1CCCN(C)CC1 (stereo not drawn)	21.4%
COc1ccc(-n2nc(C(=O)NCC(=O)Nc3cccc(Cl)c3)c3ccccc3c2=O)cc1	16.5%
Cc1cccc(NC(=O)CSc2nc(C3CC3)nc3ccccc23)c1	4.82%
CN1/C(=C\C=Nc2ccccc2)C(C)(C)c2ccccc21	-65%
N=c1c2c(ncn1Cc1ccco1)Oc1cc(O)ccc1C2c1ccccc1 (stereo not drawn)	-69.5%
CC(C)[C@H]1C(=O)O[C@@H]2CCN3CC=C(COC(=O)[C@](C)(O)[C@]1(C)O)[C@H]23	2.55%
CC(Oc1ccccc1)C(=O)N=C1SC2CS(=O)(=O)CC2N1c1cccc(F)c1 (stereo not drawn)	11.7%
COc1ccc(/C=C2\Sc3ccc(C(=O)N4CCN(Cc5ccccc5)CC4)cc3N(C)C2=O)cc1OC	8.54%
O=C(O)CSc1nnc(C2COc3ccccc3O2)n1-c1ccccc1 (stereo not drawn)	20.6%
Cc1cc2oc(=O)cc(Cn3ccnc3)c2cc1O	14%
Cc1oc(-c2ccc(Cl)cc2)nc1CS(=O)CC(=O)NCc1ccc2c(c1)OCO2 (stereo not drawn)	15.3%

SMILES	hERG current change (%, negative = inhibition) at 1uM
Cc1ccc(C2=NN=C(NC(=O)CSc3nc(C)cc(C)n3)SC2)cc1	0.712%
CC(=O)/C(=N\Nc1ccc(Cl)cc1)Sc1nnc(-c2ccccc2)n1-c1ccccc1	5.5%
COCCNC(=O)/C(C#N)=C/C=C/c1ccccc1	8.34%
O=C(Nc1ccc(Br)cc1)C1CCC(=O)N1Cc1ccccc1Cl (stereo not drawn)	12.3%
COc1c(Cl)cc(Cl)cc1/C=N/n1cnnc1	5.99%
CC1=C(C#N)C(Nc2cc(C)ccn2)(C(F)(F)F)C(=O)N1 (stereo not drawn)	-2.79%
N#CCN1CCN(CCC(=O)Nc2ccc(OCc3ccccc3)cc2)CC1	-1.48%
CC(C)(C)NC(=O)Cn1c(SCC(N)=O)nc2ccccc21	17.9%
Cc1onc(NC(=O)NC(=O)c2ccccc2F)c1Br	10.5%
O=C(NCc1cccnc1)C1c2ccccc2C(=O)N1C1CCCCCC1 (stereo not drawn)	8.67%
COc1cc(NC(=O)Cn2nc(C(F)(F)F)c(Br)c2C)cc([N+](=O)[O-])c1	13.8%
CC1(C)Cc2c(oc3ncn4ncnc4c23)CO1	15.5%
CCCCN(C(=O)c1ccc(C)o1)c1c(N)n(CCCC)c(=O)[nH]c1=O	5.08%
CCCCSc1cnn(-c2ccccc2)c(=O)c1SCCCC	-5.42%
CSCCCN1CCC(n2nccc2NC(=O)CCCc2ccccc2)CC1	-28.5%
COc1ccc(C)cc1N(CC(=O)N1CCCCCC1)S(=O)(=O)c1ccc(C)cc1	0.866%
COC(=O)Cc1ccc(NC(=O)c2ccc3c(c2)C(=O)N(Cc2cccnc2)C3=O)cc1	9.99%
COc1ccc(NS(=O)(=O)c2cc3c(cc2C)NC(=O)CO3)c(OC)c1	6.35%
CCCCOC(=O)CCNc1n[nH]c(=O)[nH]c1=O	6.23%
O=C(NCc1ccco1)c1cccc(S(=O)(=O)N2CCN(Cc3ccccc3)CC2)c1	-3.57%
Cc1ccc(CNC(=O)COC(=O)c2ccc(Br)cc2)cc1	17.2%
